We go through 24 compounds from the supplement of paper PMC10037445.

The test system of assay [1] is RAW-Dual. In words: IRF Lucia reporter activity, fold change vs agonist alone; cytotoxicity flag (confluency mask): not cytotoxic; higher = enhanced IRF activity. A digest of the protocol:
(§1)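 Supernatant from RAW-Dual macrophages was read after 20 hours for IRF by QuantiLuc luminescence and for NF-κB by QuantiBlue absorbance at 620 nm. The cells (50,000 cells/well in DMEM, 384-well plates, 37 °C, 5% CO2) had received 50 nL of library stock by pin tool and, 1 h later, a PRR agonist. Reporter activity is expressed relative to agonist-alone wells as fold change, and wells were flagged cytotoxic if IncuCyte confluency was under 70% of agonist controls in both mask sets.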

Assay [2] deals with RAW-Dual. Nature of the assay: IRF Lucia reporter activity, fold change vs agonist alone; higher = enhanced IRF activity. The note with it: agonist: MPLA (TLR4) […]. The method, boiled down:
as §1

For assay [3], the system named is RAW-Dual. Nature of the assay: IRF Lucia reporter activity, fold change vs agonist alone; cytotoxicity flag (confluency mask): cytotoxic (confluency <70% of control); higher = enhanced IRF activity. A digest of the protocol:
as §1

[4] abbreviates: agonist: 3'3'-cGAMP (STING) 10 ug/mL.
Setting [5] is: library stock concentration (final ~1000-fold dilution): 10 mM, cytotoxicity flag (confluency mask): not cytotoxic.

Structures are written as SMILES. In all, about 2,900 compounds were measured (“IRF Lucia reporter activity, fold change vs agonist alone”: median about 0.9, highest 2% from about 2.8 on). Some of the results follow.

Consider `CN(CC(=O)N(Cc1ccc(C2CCCCC2)cc1)c1ccc(C(=O)O)c(O)c1)S(=O)(=O)c1c(F)c(F)c(F)c(F)c1F` (library stock concentration (final ~1000-fold dilution): 10 mM), for which the “IRF Lucia reporter activity” value in assay [1] (setting [4]) was found to be 0.0291; in assay [1] (agonist: LPS (TLR4) 0.1 ug/mL), 0.255.
Consider `NC(N)=NCCCC(N)C(=O)NC(CCCN=C(N)N)C(=O)N1CCCC1C(=O)N1CC(O)CC1C(=O)NCC(=O)NC(Cc1cccs1)C(=O)NC(CO)C(=O)N1Cc2ccccc2CC1C(=O)N1C(C(=O)NC(CCCN=C(N)N)C(=O)O)CC2CCCCC21` (centres undefined) (library stock concentration (final ~1000-fold dilution): 2 mM water), for which the “IRF Lucia reporter activity” value in assay [1] (setting [4]) is 0.973; in assay [1] (agonist: LPS (TLR4) 0.1 ug/mL), 0.782.
Regarding `NC(N)=NCCCC(N)C(=O)NC(CCCN=C(N)N)C(=O)N1CCCC1C(=O)N1CC(O)CC1C(=O)NCC(=O)NC(Cc1cccs1)C(=O)NC(CO)C(=O)N1Cc2ccccc2CC1C(=O)N1C(C(=O)NC(CCCN=C(N)N)C(=O)O)CC2CCCCC21` (centres undefined), the “IRF Lucia reporter activity” value in assay [2] (library stock concentration (final ~1000-fold dilution): 2 mM water, cytotoxicity flag (confluency mask): not cytotoxic) was determined as 1.25.
Regarding `CN(C)CCN(Cc1ccc(Cl)cc1)c1ccccn1.Cl`, the “IRF Lucia reporter activity” value in assay [2] (setting [5]) was determined as 1.02.
As for `CN(C)CCN(Cc1ccc(Cl)cc1)c1ccccn1.Cl` (library stock concentration (final ~1000-fold dilution): 10 mM), the “IRF Lucia reporter activity” value in assay [1] (setting [4]) turned out to be 0.714; in assay [1] (agonist: LPS (TLR4) 0.1 ug/mL) it was 0.968.
Turning to `CC(C)=CCc1c(-c2ccc(O)cc2O)oc2c3c(cc(O)c2c1=O)OC(C)(C)C=C3` (library stock concentration (final ~1000-fold dilution): 10 mM), the “IRF Lucia reporter activity” value in assay [3] (setting [4]) is 0.0354; in assay [3] (agonist: LPS (TLR4) 0.1 ug/mL), 0.23.
Take `c1ccc(-c2n[nH]cc2-c2ccnc3ccccc23)nc1`: the “IRF Lucia reporter activity” value in assay [2] (library stock concentration (final ~1000-fold dilution): 2 mM, cytotoxicity flag (confluency mask): not cytotoxic) was 1.19.
Turning to `c1ccc(-c2n[nH]cc2-c2ccnc3ccccc23)nc1` (library stock concentration (final ~1000-fold dilution): 2 mM), the “IRF Lucia reporter activity” value in assay [1] (setting [4]) was 0.776; in assay [1] (agonist: LPS (TLR4) 0.1 ug/mL) it was 0.718.
Take `O=C(Nc1ccc(O)c(C(=O)O)c1)c1cccc(NC(=O)c2ccco2)c1` (library stock concentration (final ~1000-fold dilution): 10 mM): the results for the “IRF Lucia reporter activity” value in assay [1] (setting [4]) and in assay [1] (agonist: LPS (TLR4) 0.1 ug/mL) were 0.768 and 0.874, respectively.
As to `COc1cc(Br)c(Nc2nc(-c3c(C)nc4ncccn34)cs2)c(Br)c1` (library stock concentration (final ~1000-fold dilution): 10 mM), the “IRF Lucia reporter activity” value in assay [1] (setting [4]) is 0.184; in assay [1] (agonist: LPS (TLR4) 0.1 ug/mL) it was 1.89.
On to `COc1cc(Br)c(Nc2nc(-c3c(C)nc4ncccn34)cs2)c(Br)c1`, for which the “IRF Lucia reporter activity” value in assay [2] (setting [5]) is 1.32.
With `CC(C)Oc1ccc(-c2nn(C(C)c3oc4ccc(F)cc4c(=O)c3-c3cccc(F)c3)c3ncnc(N)c23)cc1F` (centres undefined) (library stock concentration (final ~1000-fold dilution): 10 mM), the “IRF Lucia reporter activity” value was 0.264 in assay [1] (setting [4]) and 1.24 in assay [1] (agonist: LPS (TLR4) 0.1 ug/mL).
Take `Cl.NCc1c[nH]c(=S)n1C1CCc2c(F)cc(F)cc2C1` (centres undefined) (library stock concentration (final ~1000-fold dilution): 10 mM): the “IRF Lucia reporter activity” value was 0.88 in assay [1] (setting [4]) and 0.944 in assay [1] (agonist: LPS (TLR4) 0.1 ug/mL).
For the compound `Cl.NCc1c[nH]c(=S)n1C1CCc2c(F)cc(F)cc2C1` (centres undefined), in assay [2] (setting [5]), the “IRF Lucia reporter activity” value came out at 0.987.
For the compound `CN1C(=O)c2sccc2N(C)c2nc(Nc3ccc(S(N)(=O)=O)cc3)ncc21` (library stock concentration (final ~1000-fold dilution): 10 mM), the “IRF Lucia reporter activity” value amounted to 0.385 in assay [1] (setting [4]) and 0.128 in assay [1] (agonist: LPS (TLR4) 0.1 ug/mL).
On to `COC1CC2CCC(C)C(O)(O2)C(=O)C(=O)N2CCCCC2C(=O)OC(C(C)CC2CCC(O)C(OC)C2)CC(=O)C(C)C=C(C)C(O)C(OC)C(=O)C(C)CC(C)C=CC=CC=C1C` (centres undefined), for which the “IRF Lucia reporter activity” value in assay [2] (setting [5]) came out at 1.46.
For `COC1CC2CCC(C)C(O)(O2)C(=O)C(=O)N2CCCCC2C(=O)OC(C(C)CC2CCC(O)C(OC)C2)CC(=O)C(C)C=C(C)C(O)C(OC)C(=O)C(C)CC(C)C=CC=CC=C1C` (centres undefined) (library stock concentration (final ~1000-fold dilution): 10 mM), the “IRF Lucia reporter activity” value in assay [1] (setting [4]) turned out to be 1.05; in assay [1] (agonist: LPS (TLR4) 0.1 ug/mL), 2.09.
Turning to `COC1CC2CCC(C)C(O)(O2)C(=O)C(=O)N2CCCCC2C(=O)OC(C(C)CC2CCC(O)C(OC)C2)CC(=O)C(C)C=C(C)C(O)C(OC)C(=O)C(C)CC(C)C=CC=CC=C1C` (centres undefined) (library stock concentration (final ~1000-fold dilution): .1 mM), the “IRF Lucia reporter activity” value was found to be 0.922 in assay [1] (setting [4]) and 0.698 in assay [1] (agonist: LPS (TLR4) 0.1 ug/mL).
For `CN1CCC(OC(c2ccccc2)c2ccccc2)CC1.Cl` (library stock concentration (final ~1000-fold dilution): 10 mM), in that order: 0.796 and 0.768.
Consider `CN1CCC(OC(c2ccccc2)c2ccccc2)CC1.Cl`, for which the “IRF Lucia reporter activity” value in assay [2] (setting [5]) worked out at 1.09.
For the compound `CC(=O)c1c(C)c2cnc(Nc3ccc(N4CCNCC4)cn3)nc2n(C2CCCC2)c1=O.Cl`, the “IRF Lucia reporter activity” value in assay [2] (library stock concentration (final ~1000-fold dilution): 10 mM water, cytotoxicity flag (confluency mask): not cytotoxic) was found to be 1.08.
Consider `CC(=O)c1c(C)c2cnc(Nc3ccc(N4CCNCC4)cn3)nc2n(C2CCCC2)c1=O.Cl` (library stock concentration (final ~1000-fold dilution): 10 mM water), for which the “IRF Lucia reporter activity” value turned out to be 0.35 in assay [1] (setting [4]) and 0.962 in assay [1] (agonist: LPS (TLR4) 0.1 ug/mL).
In the case of `CCC1(O)CC2CN(CCc3c([nH]c4ccccc34)C(C(=O)OC)(c3cc4c(cc3OC)N(C)C3C(O)(C(=O)OC)C(OC(C)=O)C5(CC)C=CCN6CCC43C65)C2)C1.O=S(=O)(O)O` (centres undefined), the “IRF Lucia reporter activity” value in assay [2] (library stock concentration (final ~1000-fold dilution): 10 mM, cytotoxicity flag (confluency mask): cytotoxic (confluency <70% of control)) amounted to 2.07.
As for `CCC1(O)CC2CN(CCc3c([nH]c4ccccc34)C(C(=O)OC)(c3cc4c(cc3OC)N(C)C3C(O)(C(=O)OC)C(OC(C)=O)C5(CC)C=CCN6CCC43C65)C2)C1.O=S(=O)(O)O` (centres undefined) (library stock concentration (final ~1000-fold dilution): 10 mM), the “IRF Lucia reporter activity” value in assay [3] (setting [4]) is 0.226; in assay [3] (agonist: LPS (TLR4) 0.1 ug/mL), 2.16.
